Laboratory results reported in the supplement of paper PMC11417369.
This is one part of the list.

test system: PfAP2-HC AP2 domain (GST-tagged); test: gcPBM binding intensity (ln(normalized median fluorescence intensity)); higher = stronger DNA binding
Procedure, shortened: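 Binding intensity is defined as the maximum Masliner-normalised natural-log median intensity across replicate spots for either probe orientation. It was measured on an Agilent 4 × 180k array of primer-extended double-stranded 36-bp intergenic genomic probes and negative controls, to which GST-tagged P. falciparum DNA-binding domains made in E. coli were applied for 1 h in 1× PBS with 1% milk, 0.2 mg/ml BSA, 0.5% salmon testes DNA and 0.03% Triton X-100. Detection was by Alexa488 anti-GST antibody and scanning at 488 nm.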

Sequence | gcPBM binding intensity (ln)
AAGGTAAACGGACACACACACATACAAAAAAAAAAA [CACACA_site5961] | 11.3
TGATATTATAGATATACACACATGTATGTATTTATA [CACACA_site6758] | 9.78
AGACCTATGATATATACACACATATAAATAAATATA [CACACA_site6725] | 9.77
TTATTAAATATAAATATGTATCTTTTATGTTATATT [CACACA_negctrl_site306] | 9.57
TAAATCCGCAGGCACACACACATATTAATAAAAAAA [CACACA_site3991] | 10.8
AAAAAAAAAAGACACACACACATAGACCTCCAATAG [CACACA_site7646] | 10.5
TATTTTACGACATACCAAAAAAAAAAAAAAAAAATA [CACACA_negctrl_site1254] | 9.43
AATGTTAAACTATGATGTACGGTTAAAAATATAATT [XGTACX_site893] | 9.58
TATATATTATATAAATAAATAAATATATATATTTAT [TGCATGCA_negctrl_site270] | 9.15
AATGATTTTGATTAACGTACGTACAAATATATATAT [XGTACX_site6604] | 9.6
AAAAAAGAAATAAGGATACACACTATTGATAAAAGT [CACACA_site272] | 9.94
CCAGTGTGCACCTTGCGTACATATTAAATTAATTAA [XGTACX_site3729] | 9.49
TTTTTTAAATTTAAAGTGCATTATTATATATTTGTA | 9.49
AAAAAAAAAATATATATATATATATATATATATATA [GTGCAC_negctrl_site467] | 9.77
CAAAAAAAAAAACGGGTGCTAAATTTTATTTTTTAT | 9.52
ATAAAGCACACCGACACACACATATATATATATATA [CACACA_site1047] | 10.5
TATCATGGTTCGGATTGTACATATATGAATTTTTTT [XGTACX_site7478] | 9.67

Sequence | gcPBM binding intensity (ln)
GGATAAGAAAAGAAGTGTACATATATATATATATAT [XGTACX_site8290] | 9.81
TTCTTTTAAAAATATATTTTAAGAAAATTTAATTTA [GTGCAC_negctrl_site237] | 9.13
TTTATTTTTTGAAACACACACAAAAAAAATGATACA [CACACA_site1881] | 9.9
TAAAATGAATAAAATTGTACTTAATAATATTTTAAA [XGTACX_site5532] | 9.38
AATATATGTTAAAATGGTACACAATTATTATATATT [XGTACX_site6407] | 9.71
AAAAAAAAAAAAAAGAGTACTTTTTTCACATTCATC [XGTACX_site8795] | 9.51
AAAAAAAAAAAAATTACACACATACCTATAAGAATA [CACACA_site7097] | 9.94
TTTTCTTTTTTCTTTTTAACTCTTACATAATAGGTG [CACACA_negctrl_site642] | 9.34
GGATATATAAGATACACACACAAATTAAATATAAAA [CACACA_site7333] | 10.2
TAATATATAAATATATGTACATAATTAATAGGATAT [XGTACX_site237] | 9.8
TATTCCTAATTTAAAAGTACATATATATATATATAT [XGTACX_site3008] | 9.6
TAAATCAAAAACAACAAGTCATATTAAAGATGGTAT [CACACA_negctrl_site1321] | 9.77
CTTATAATATTACGGGTGCTATAAATACATTATATT | 9.72
TTGTTTCAAAATTAAACACACACAAAAAAAAAAAAA [CACACA_site8856] | 9.88
TATATTTATATCATCACACATTTTTTTTTTCTTTTT [CACACA_site6150] | 9.59
AAGGAAAACAGTAGGTGTACCAAACGTCCTAGGAAC [XGTACX_site3659] | 9.78
